Experimental data published in PubChem BioAssay (Tox21).
Values joined by “and” are separate entries in the source; they are usually repeats but may differ in a detail not shown here. Equal values may be shown once. Inconclusive means that the source gave no clear call. Such entries were picked first, then a sample of the others. Potencies of inconclusive entries are left out as doubtful fits. Active and inactive are the calls of the source. Unless noted, the call rests on the fitted dose curve.
On the % scale 0 is the no-effect control and ±100 the full control effect; potency means the concentration at half of the fitted maximal effect; tags describe the fitted curve by direction and shape.

Test: qHTS assay for small molecule agonists of the antioxidant response element (ARE) signaling pathway (AID 743202; active means well fitted activation curve with a large enough effect in the signal ratio in the repeat runs, not every such curve was filed as active; inconclusive means weak or mixed curves, or effect the other way; inactive means no such curve, though single readings can be large or run the other way; the % refers to the signal ratio)
Conditions: HepG2 ARE-bla reporter, beta-lactamase FRET, 16 h; activation: at 73.3 µM (top of the series) unless noted
In short: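 Agonist mode reporter screen: HepG2 cells with ARE-controlled beta-lactamase are incubated with test compounds for 16 h at 37 C, and beta-lactamase activity is measured as fluorescence of cleaved B/G FRET substrate.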
In the case of `CCOc1ccc2nc3cc(N)ccc3c(N)c2c1`, the Potency is reported as inconclusive [rising, partial curve]. With `CCCCCCCCCCCC(C)=O` the “activation” value was inactive: -0.311%. For `CC1=Nc2ccccc2C1(C)C`, the “activation” value was inactive: -8.9%. In the case of `CC(C)(C)C(O)/C=C/c1ccc2c(c1)OCO2` (stereo not given), the activation is reported as inconclusive: 16.3%. In the case of `NS(=O)(=O)c1cc(C(=O)O)c(NCc2ccco2)cc1Cl`, the activation is reported as inconclusive: 0.863%. In the case of `O=C1CCCCCN1SSN1CCCCCC1=O`, the “activation” value is reported as inactive: 3.08%. In the case of `C=Cc1ccccc1C=C`, the “activation” value is reported as inactive: -4.45% [at 260 µM]. With `CC(CO)Oc1ccccc1` (stereo not given) the “activation” value was inactive: -6.51% [at 94.8 µM]. In the case of `Cc1ccc([N+](=O)[O-])cc1Cl`, the “activation” value is reported as inactive: 5.38% [at 94.8 µM]. In the case of `CCCCCCOC(=O)C(C)CC` (stereo not given), the activation is reported as inconclusive: -0.904%. In the case of `CCOCCOC(=O)/C=C/c1ccc(OC)cc1`, the activation is reported as inconclusive: 19.2%. With `ClC/C=C/CCl` the Potency was active: 24.1 µM and active: 24.5 µM. For `Nc1ccncc1N`, the “activation” value was inactive: 1.34%. In the case of `O=c1[nH]c(=O)c2[nH]c(=O)[nH]c2[nH]1`, the activation is reported as inactive: 2.83% [at 8.36 µM]. For `CCOc1ncc(F)c(=O)[nH]1`, the “activation” value was inactive: -4.56%. For `CC(C)(C)c1cc(CO)cc(C(C)(C)C)c1O`, the Potency was active: 31.2 µM. For `C=CCCCCCCCCCCCCCC`, the Potency was inconclusive [rising, partial curve, poor fit].

Same assay, conditions: HepG2 ARE-bla reporter, beta-lactamase FRET, 16 h; at 73.3 µM (top of the series)
With `COC(=O)c1ccccc1O` the activation was inactive: 2.16%. With `NS(=O)(=O)c1cc(C(=O)O)c(NCc2ccco2)cc1Cl` the activation was inactive: 14.3%. For `CC(C)=CCO`, the activation was inconclusive: 16.3%.

Test: qHTS assay for small molecule agonists of the antioxidant response element (ARE) signaling pathway - cell viability counter screen (AID 743203); further: nearly all actives have a fitted effect of over 55% in size
Conditions: ARE-bla HepG2 viability, CellTiter-Glo luminescence, 16 h; viability change, negative = cytotoxic: at 73.3 µM (top of the series)
In short: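 Compounds in DMSO were pinned onto ARE-bla HepG2 cells plated 5 hrs earlier at 2,000 cells/well. Sixteen hours later at 37C/5% CO2, CellTiter-Glo was added and luminescence measured after 30 min at room temperature.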
In the case of `CCCCCCCCCCCCCCC[C@H](O)[C@@H](N)CO`, the “viability change, negative = cytotoxic” value is reported as inactive: -27.5%. In the case of `Cc1ccc2c(c1[N+](=O)[O-])C(=O)c1ccccc1C2=O`, the Potency is reported as inconclusive [cytotoxic, partial curve, poor fit]. With `CCCCCCCC/C=C/C(=O)O` the Potency was inconclusive [cytotoxic, partial curve, poor fit]. In the case of `CN(C)CCOC(c1ccc(Cl)cc1)c1ccccn1` (stereo not given), the Potency is reported as inconclusive [cytotoxic, single point]. For `NS(=O)(=O)c1cc2c(cc1Cl)NC=NS2(=O)=O`, the Potency was “inactive”. With `CCOc1ccc2nc3cc(N)ccc3c(N)c2c1` the Potency was inconclusive [cytotoxic, single point].

Test: qHTS assay for small molecule activators of the heat shock response signaling pathway - cell viability counter screen (AID 743209; active means well fitted cell-killing curve with a large enough effect in the repeat runs; inconclusive means weak or mixed curves, or effect the other way; inactive means no such curve, though single readings can be large or run the other way; further: nearly all actives have a fitted effect of over 50% in size)
Conditions: HSE-bla HeLa viability, CellTiter-Glo luminescence, 5 h; activity change, negative = cytotoxicity: at 62.6 µM (top of the series) unless noted
In short: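 Counter screen for cytotoxicity in HeLa HSE-bla reporter cells. Treatment was 5 h at 37 C; viability was detected by luminescent ATP assay (CellTiter-Glo) in the same wells as the beta-lactamase read.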
In the case of `CCOc1ccc2nc3cc(N)ccc3c(N)c2c1`, the Potency is reported as inconclusive [cytotoxic, single point]. For `Cc1ccc([N+](=O)[O-])cc1Cl`, the “activity change, negative = cytotoxicity” value was inactive: 2.67% [at 81.1 µM]. With `ClC/C=C/CCl` the Potency was inconclusive [rising, full curve, poor fit]. In the case of `CC(C)(C)c1cc(CO)cc(C(C)(C)C)c1O`, the “activity change, negative = cytotoxicity” value is reported as inactive: -1.29% [at 81.1 µM].
